# This list was built around the results that the source calls inconclusive (neither active nor inactive); the mix of calls is not that of the screen. No potency is given beside an inconclusive call; the fits are too rough. Active and inactive are the calls of the source. Calls follow the shape of the dose curve; as a rule, active = well fitted curve in the direction sought with a large enough effect; inconclusive = small, poorly fitted or top-dose-only effect, or another doubt; inactive = no such curve, though single readings can be large; an effect the other way counts as inactive or inconclusive.
# Assay: qHTS of pediatric cancer cell lines to identify multiple opportunities for drug repurposing: Primary screen for SK-N-MC cells (AID 1347093)
# Settings: SK-N-MC viability, CellTiter-Glo luminescence, 48 h; series mostly up to 46 µM
# Procedure, shortened: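 Metabolically active cells were quantified by ATP-dependent luminescence (CellTiter-Glo, 15 min at room temperature) following 48 h treatment. Cells had been plated at 500-1,000 per well and settled for 5 h beforehand.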
# Potency is read from the fitted curve at half-maximal effect; tags tell the direction and shape of the fitted curve.
row,SMILES,Potency
1,O=C(O)CCCc1ccc(N(CCCl)CCCl)cc1,"inconclusive [cytotoxic, single point]"
2,C=CCC1(C(C)CC)C(=O)NC(=O)NC1=O (configuration not stated),inactive
3,NCC1(CC(=O)O)CCCCC1,"inconclusive [cytotoxic, single point]"
4,CN1C[C@H](CNC(=O)OCc2ccccc2)C[C@@H]2c3cccc4c3c(cn4C)C[C@H]21,"inconclusive [cytotoxic, single point]"
5,Oc1ccc2[nH]cc(CCCCN3CC=C(c4ccccc4)CC3)c2c1,"inconclusive [cytotoxic, single point]"
6,CCCN(CCC)CCc1c[nH]c2ccccc12,"inconclusive [cytotoxic, partial curve, poor fit]"
7,O=C1C=CC[C@@H]2[C@H]3CCCN4CCC[C@@H](CN12)[C@@H]34,"inconclusive [cytotoxic, single point]"
8,CCCCCCCCCC(CC)c1ccc(S(=O)(=O)O)cc1 (configuration not stated),"inconclusive [cytotoxic, partial curve, poor fit]"
9,CNCC(O)c1ccc(O)cc1 (configuration not stated),"inconclusive [cytotoxic, full curve, poor fit]"

# Assay: qHTS of pediatric cancer cell lines to identify multiple opportunities for drug repurposing: Primary screen for BT-37 cells (AID 1347094)
# Settings: BT-37 viability, CellTiter-Glo luminescence, 48 h; series mostly up to 57.3 µM
# Procedure, shortened: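 Phenotypic viability qHTS, 48 h compound exposure, CellTiter-Glo luminescence read-out; multi-concentration dosing so that potency and efficacy derive directly from the primary screen's curves.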
row,SMILES,Potency
1,O=S(=O)(O)C(F)(F)C(F)(F)C(F)(F)C(F)(F)C(F)(F)C(F)(F)C(F)(F)C(F)(F)F,inactive
2,CCC(=O)C(CC(C)N(C)C)(c1ccccc1)c1ccccc1 (configuration not stated),"inconclusive [cytotoxic, partial curve, poor fit]"
3,N#CC(C#N)=Cc1ccc(O)c(O)c1,"inconclusive [cytotoxic, single point]"
4,C=C1C[C@H]2[C@H]3CCC(=O)[C@@]3(C)CC[C@@H]2[C@@]2(C)C=CC(=O)C=C12,"inconclusive [cytotoxic, partial curve, poor fit]"
5,O=c1c(C2CC(c3ccc(-c4ccc(Br)cc4)cc3)Cc3ccccc32)c(O)sc2ccccc12 (configuration not stated),"inconclusive [cytotoxic, single point]"
6,C[C@H](CN1CCOCC1)C(C(=O)N1CCCC1)(c1ccccc1)c1ccccc1,"inconclusive [cytotoxic, partial curve, poor fit]"
7,O=C(O)c1nn(Cc2ccc(Cl)cc2Cl)c2ccccc12,inactive
8,c1ccc2c(c1)OCC(C1=NCCN1)O2 (configuration not stated),"inconclusive [cytotoxic, single point]"
9,CC(C)=CCN1CC[C@@]2(C)c3cc(O)ccc3C[C@@H]1[C@@H]2C,"inconclusive [cytotoxic, partial curve, poor fit]"
10,CC[C@H]1C[C@@H]2C[C@H]3c4[nH]c5ccc(OC)cc5c4CCN(C2)[C@@H]13,"inconclusive [cytotoxic, partial curve, poor fit]"
11,CC1Sc2c(C(=O)O)c(=O)c3cc(F)c(N4CCNCC4)cc3n21 (configuration not stated),inactive
12,CCN(CC)Cc1nccn1-c1ccc([N+](=O)[O-])cc1C(=O)c1ccccc1Cl,inactive
13,O=P1(N(CCCl)CCCl)NCCCO1 (configuration not stated),inactive
14,Clc1ccc(C(OCCN2CCCCC2)c2ccccc2)cc1 (configuration not stated),"inconclusive [cytotoxic, single point]"
15,COP(=S)(OC)SCN1C(=O)c2ccccc2C1=O,inactive
16,CC(CC(C#N)(c1ccccc1)c1ccccc1)N(C)C (configuration not stated),"inconclusive [cytotoxic, partial curve, poor fit]"
17,CC1(N2CCC(n3c([C@@H]4CCCNC4)nc4ccccc43)CC2)CCCCCCC1,"inconclusive [cytotoxic, single point]"
18,CCOC(=O)c1cncn1[C@H](C)c1ccccc1,inactive
19,COC1=C[C@@H]2[C@@H]3Cc4ccc(OC)c(O)c4[C@]2(CCN3C)CC1=O,"inconclusive [cytotoxic, partial curve]"
20,COc1cc(C[C@@H](C)N)c(OC)cc1C,"inconclusive [cytotoxic, full curve]"
21,CN(C)CCN(C)CCc1ccc(Cl)c(Cl)c1,"inconclusive [cytotoxic, partial curve, poor fit]"
22,C=CCN1CC[C@]23CCCC[C@H]2[C@H]1Cc1ccc(O)cc13,inactive
23,C=C1C[C@@H]2[C@H](CC[C@]3(C)C(=O)CC[C@@H]23)[C@@]2(C)C=CC(=O)C=C12,"inconclusive [cytotoxic, single point]"
